In the supplement of paper PMC4604168 (melanoma cell lines):
Some of the results follow. Repeats are few or missing, and single values can be far off.

The molecules below were run on WM451Lu (assay: cell count relative to DMSO control; melanoma cells; higher = more viable cells). Details: library dose: low library concentration; 72 h.
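Note: cell number obtained by counting DAPI-stained nuclei in high-throughput microscope images with image analysis software, screen run in 1,536-well plates.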

Q: With `CN(c1ncccc1CNc1nc(Nc2ccc3c(c2)CC(=O)N3)ncc1C(F)(F)F)S(C)(=O)=O` + O=C1NC(=O)/C(=C/c2ccc(-c3ccc(F)cc3O)o2)S1 [AS252424] (first compound 0.08 µM, partner dose 1 µM) as the molecule, how does the cell count read?
A: Its cell count is 87%.

Q: Which cell count does the source give for `CN(c1ncccc1CNc1nc(Nc2ccc3c(c2)CC(=O)N3)ncc1C(F)(F)F)S(C)(=O)=O` + Oc1cc(-c2nc(-c3ccccc3)[nH]c2-c2ccncc2)ccc1Cl [L779450] (first compound 0.08 µM, partner dose 0.2 µM) here?
A: The cell count was 57%.

Q: Which cell count does the source give for `C=C(c1ccc(C(=O)O)cc1)c1cc2c(cc1C)C(C)(C)CCC2(C)C` [Bexarotene] + Cn1c(Nc2ccc(C(F)(F)F)cc2)nc2cc(Oc3ccnc(-c4ncc(C(F)(F)F)[nH]4)c3)ccc21 [CHIR265] (first compound 2 µM, partner dose 0.08 µM) here?
A: The cell count was 102%.

Q: `CCCS(=O)(=O)Nc1ccc(F)c(C(=O)c2c[nH]c3ncc(Cl)cc23)c1F` + COc1ccc(Cl)c(Nc2nc3ccccc3nc2NS(=O)(=O)c2cccc(NC(=O)C(C)(C)N)c2)c1 [XL147] (first compound 0.08 µM, partner dose 0.8 µM) was tested. Which cell count did it give?
A: Its cell count is 97.1%.

Q: For `CCCS(=O)(=O)Nc1ccc(F)c(C(=O)c2c[nH]c3ncc(Cl)cc23)c1F` + CN(C)S(=O)(=O)c1ccc2c(c1)/C(=C/c1cc3c([nH]1)CCCC3)C(=O)N2 [SU6656] (first compound 0.08 µM, partner dose 0.4 µM), which cell count is on record?
A: The cell count was 93.6%.

Q: `C=C(c1ccc(C(=O)O)cc1)c1cc2c(cc1C)C(C)(C)CCC2(C)C` [Bexarotene] + COc1cc(Nc2ncc(F)c(Nc3ccc4c(n3)NC(=O)C(C)(C)O4)n2)cc(OC)c1OC [Tamatinib] (first compound 2 µM, partner dose 0.4 µM) was tested. Which cell count did it give?
A: The cell count was 76.1%.

Q: With `CS(=O)(=O)c1ccc(C(=O)Nc2ccc(Cl)c(-c3ccccn3)c2)c(Cl)c1` [vismodegib] + CC(=O)O[C@@]12CO[C@@H]1C[C@H](O)[C@@]1(C)C(=O)[C@H](O)C3=C(C)[C@@H](OC(=O)[C@H](O)[C@@H](NC(=O)OC(C)(C)C)c4ccccc4)C[C@@](O)([C@@H](OC(=O)c4ccccc4)[C@H]21)C3(C)C [Docetaxel] (first compound 1 µM, partner dose 0.0001 µM) as the molecule, how does the cell count read?
A: The cell count was 44%.
